# Test results published in the supplement of paper PMC12217912.
# The list shows a part of the results. Sequences were assembled here from the parent chain. Values near 0.05 are background.
# B1: TEV protease; numbered along this chain (parent)
# chain: MGESLFKGPRDYNPISSSICHLTNESDGHTTSLYGIGFGPFIITNKHLFRRNNGTLVVQSLHGVFKVKDTTTLQQHLVDGRDMIIIRMPKDFPPFPQKLKFREPQREERICLVTTNFQTKSMSSMVSDTSCTFPSGDGIFWKHWIQTKDGQCGSPLVSTRDGFIVGIHSASNFTNTNNYFTSVPKNFMELLTNQEAQQWVSGWRLNADSVLWGGHKVFMVKPEEPFQPVKEATQL
# Variants of: B1
# Experiment: raw area under fraction-flipped curve 0-4 h after induction (AUC4h, not background-subtracted), DNA-recorder readout of cleavage of the substrate (dimensionless); higher = more cleavage of the substrate by the protease variant
# Conditions: temperature: 34 °C; time window: 0-4 h after rhamnose induction
# Procedure: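 In vivo DNA recorder in E. coli TOP10(DE3) ΔrhaA at 34 °C. Each TEVp single-site mutant (parent TEVp 0) is paired with a single-site variant of the 7-mer TEVs (canonical ENLYFQ|S). The substrate sits between flexible linkers in a Bxb1-sfGFP-TEVs-SsrA fusion, so cleavage stabilises Bxb1 and speeds flipping of a recombination array, read by NGS. The value is the raw area under the fraction-flipped curve over 0-4 h after rhamnose induction (AUC4h), with ≥20 reads per time point. It is not background-subtracted; inactive controls average about 0.047.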
# 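Also: Bxb1 expression induced with 0.2% (w/v) L-rhamnose at OD600 near 0.5, cultures sampled hourly, flipped fraction per protease–substrate barcode pair counted by paired-end Illumina sequencing.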
Variant,area with substrate ENLYFAS,area with substrate ENLYFCS,area with substrate ENLYFDS,area with substrate ENLYFES,area with substrate ENLYFFS,area with substrate ENLYFGS,area with substrate ENLYFHS,area with substrate ENLYFIS,area with substrate ENLYFKS,area with substrate ENLYFMS,area with substrate ENLYFNS,area with substrate ENLYFPS,area with substrate ENLYFSS,area with substrate ENLYFTS,area with substrate ENLYFWS,area with substrate ENLYFYS,area with substrate ENLYFLS,area with substrate ENLYFRS,area with substrate ENLYFVS
P89Y,0.0553,0.049,0.0497,0.0414,0.0632,0.0697,0.0458,0.0423,0.0581,0.0581,0.0561,0.0273,0.0572,0.0368,0.0515,0.0515,,,
G63L,0.0539,0.0618,0.065,0.0708,0.067,0.0507,0.0656,0.0611,0.0488,0.0684,,0.0554,0.0564,0.0479,0.0478,0.0534,0.0707,0.0425,0.0663
G63T,0.0608,0.0495,0.0609,0.0567,0.072,,0.0512,0.057,0.0506,0.0574,,0.0744,,0.0455,0.0661,,0.0547,,
G63R,0.0649,0.0531,0.0281,0.0676,0.0554,,0.0638,0.0521,,0.0639,,0.0539,,0.0528,0.0608,0.0672,,0.0755,0.0605
Q75W,0.0569,,,0.055,0.0578,,0.0564,0.057,0.0697,0.0435,0.0535,0.0721,0.0663,,0.0541,,,0.0551,0.0508
H62Y,0.0563,,0.0253,0.0624,0.0756,0.0682,,0.0501,,0.0547,0.0561,0.038,0.0706,0.0499,0.0567,0.0524,0.0664,,0.06
F95A,0.0607,,,,,,0.0591,0.043,,0.0638,,0.0556,0.0639,,0.0543,0.0773,0.0576,0.0469,
Q97A,0.0641,0.0692,0.0603,0.0787,0.0773,0.0633,,0.0599,,0.0694,,0.0741,,0.0491,0.0655,0.0574,0.0711,,0.0055
N52Q,0.0589,,0.0691,0.0557,0.0568,0.0671,0.0595,0.0533,,0.0644,0.0576,0.0561,0.0282,0.0495,,,,0.0597,
S60C,0.0639,0.0572,,0.0642,0.0494,0.0896,0.0705,0.0599,0.0331,0.0582,0.0727,0.0429,0.0595,0.0742,0.0594,0.0608,0.0743,0.0616,0.0487
H76M,0.065,0.0572,,,0.0753,,,,,0.0517,,0.0686,,,0.0737,0.057,0.0608,,
H76L,0.0806,0.0686,,0.066,0.0683,,0.0622,0.052,0.0396,0.07,0.0775,0.0601,,0.056,,0.0527,,0.0503,0.0547
P94W,0.0614,0.0598,0.0342,0.0655,0.0602,0.0708,0.058,0.0568,0.0674,0.0382,,0.0578,,0.0654,0.0608,0.0708,,,0.057
K68I,0.0693,0.0618,,0.0682,0.0657,0.0753,0.0736,0.0617,0.0573,0.0647,0.0561,0.0615,0.0599,0.0561,0.0411,,0.0193,,0.0575
K68A,0.055,0.0679,0.067,0.0489,0.0554,,0.0619,0.0608,,0.0667,,0.0458,,0.0552,0.0656,0.0477,0.0644,,
K68Y,0.0533,0.0574,0.0519,,0.0552,0.0594,,0.0505,,0.0662,,0.0673,0.0681,0.0601,,0.0507,0.0559,0.0484,
K98S,0.0563,0.055,,0.0594,0.0618,,0.0722,0.0552,,0.0682,0.0741,0.0574,0.0526,,,0.0402,,0.0721,
K98P,0.0611,0.0633,0.0562,0.059,0.061,0.0607,0.0571,0.0551,0.0622,0.0566,0.0684,0.0549,0.0494,0.104,0.0651,0.0563,0.0674,,
K98N,0.0678,0.0597,0.0545,0.0473,0.0616,0.0539,0.0526,0.0572,0.066,0.0632,0.0578,0.0621,,,,0.0672,0.0653,0.0716,
K98F,0.0579,,,,,,,0.0615,,,,0.0673,,0.0561,,,,0.073,
I85Y,0.0527,0.0616,0.0603,0.0715,,,,0.0506,0.0669,,0.0517,0.0441,,0.0602,0.0646,0.0446,,,
K90G,0.117,,0.062,0.0481,0.0613,0.0608,,0.0683,,0.0558,0.0678,,,0.0693,0.0604,,0.063,,0.0617
K90V,0.0645,0.0511,0.0616,,0.0473,0.0499,0.0539,0.0586,,0.0572,,0.0583,0.0617,0.0524,,0.0546,,,0.0587
T55C,0.0426,0.0455,0.0548,0.0724,,,0.0556,0.0467,0.0642,0.0736,0.0571,0.0559,0.0764,0.0583,0.0621,0.0422,0.0605,,0.0727
N45E,0.052,0.0623,,,0.06,,0.0549,0.0568,0.0581,0.0637,,0.0528,0.0526,0.0594,0.0684,,0.0502,0.06,
N45P,0.0582,0.049,0.053,0.0628,,,,0.0609,,0.0604,0.0684,0.0583,0.0553,,0.09,,0.0578,,
